In the supplement of paper PMC10126150:
Values marked as one replicate rest on one cluster of the flow cell; about a third of the high ones do not repeat.

System: ATP
Assay: switch fluorescence ratio, 500 uM ATP over buffer (Cy3 cluster intensity, sum of 5 cycles each) (fold (ratio)); higher = stronger signal-on switching upon ATP binding; sequences stand for … in TCGTCGGCAGCGTCAGATGTGTATAAGAGACAGTTTTTTTTTTTTTTTTTTTTTTTTT…TC
Conditions: aptamer strand: ATP DNA aptamer (quencher-CACCTGGGGGAGTATTGCGGAGGAAGG + anchor), 100 nM annealed; ATP concentration: 500 uM; one replicate
In short: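 Clusters carrying Cy3-labelled switching strands on a modified Illumina MiSeq flow-cell were annealed to 100 nM quencher-labelled ATP aptamer and imaged in selection buffer. They were imaged again after 15 min with 500 uM ATP at 22 °C, over five buffer/ATP cycles with NaOH stripping and re-annealing in between. For each cluster, the fluorescence ratio is the summed Cy3 intensity of the target cycles divided by that of the buffer cycles, averaged per switch-domain sequence. Clusters outside 100-1000 RFU were left out.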
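Note: ATP exposure 15 min at 22 °C before imaging.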

GTATGAGGGT was tested, and the switch fluorescence ratio was 0.938.
AGGGTGCGTT was tested, and the switch fluorescence ratio was 0.933.
Sequence CCCTACCCGA has a switch fluorescence ratio of 1.06.
For GATGCACCTA, the switch fluorescence ratio was 1.01.
For CGACTGCGGG, the switch fluorescence ratio was 1.03.
With AGGCATCAAA the switch fluorescence ratio was 0.997.
Sequence AGCAAGAGTA has a switch fluorescence ratio of 1.05.
Sequence GGAGTCGATG has a switch fluorescence ratio of 0.987.
For TTAATCCCAA, the switch fluorescence ratio was 1.08.
CGGTTATGTG was tested, and the switch fluorescence ratio was 0.984.
In the case of GTGCTTGACG, the switch fluorescence ratio is reported as 0.956.
For GTCGAGGGAT, the switch fluorescence ratio was 0.983.
In the case of AATATCCGCG, the switch fluorescence ratio is reported as 1.14.
GAATGAGAGG showed a switch fluorescence ratio of 0.978.
Work on ATACTGACCG yielded a switch fluorescence ratio of 1.14.
Work on TCGCGTTATA yielded a switch fluorescence ratio of 0.986.
Sequence CTGATTACAC has a switch fluorescence ratio of 0.976.
CCACTGCGGT gave a switch fluorescence ratio of 1.81.
AGTTACCTAA gave a switch fluorescence ratio of 1.05.
In the case of ACGCTGTAGC, the switch fluorescence ratio is reported as 1.02.
CATGCGCGGG showed a switch fluorescence ratio of 1.04.
GGCCTTAGGT showed a switch fluorescence ratio of 1.02.
Sequence TTCACTGAAA has a switch fluorescence ratio of 1.
In the case of TATCTGGAGG, the switch fluorescence ratio is reported as 0.936.
Sequence AGAAGGCCAC has a switch fluorescence ratio of 0.992.
Sequence CAGGGGACTA has a switch fluorescence ratio of 1.02.
AGGCGGGTCC was tested, and the switch fluorescence ratio was 1.03.
In the case of GCACAGTTAG, the switch fluorescence ratio is reported as 0.982.
For GAGTAGAGGT, the switch fluorescence ratio was 1.01.
In the case of TGATCTGTT, the switch fluorescence ratio is reported as 1.
With ATCCAGCT the switch fluorescence ratio was 1.11.
In the case of ATAGCTTAAT, the switch fluorescence ratio is reported as 1.01.
With GCTAGTACCG the switch fluorescence ratio was 0.968.
With GAGCGACTTG the switch fluorescence ratio was 0.996.
CCGTTCCGA gave a switch fluorescence ratio of 1.05.
Sequence TGGTGTAGCG has a switch fluorescence ratio of 1.
With TCTGAATTGT the switch fluorescence ratio was 0.983.
ATTACACACA gave a switch fluorescence ratio of 1.14.
For GATATTTCGA, the switch fluorescence ratio was 0.979.
In the case of AAATGGGGCG, the switch fluorescence ratio is reported as 0.993.
Sequence CAGCACTCTC has a switch fluorescence ratio of 1.56.
CTGGGCGTTA was tested, and the switch fluorescence ratio was 0.967.
Work on CCCGTTAACG yielded a switch fluorescence ratio of 0.988.
CGTAACTGCA was tested, and the switch fluorescence ratio was 1.04.
Sequence CTAGATGTT has a switch fluorescence ratio of 1.01.
Work on TATTATGGC yielded a switch fluorescence ratio of 0.902.
GCTAACTGA was tested, and the switch fluorescence ratio was 1.1.
With AATTCATGAG the switch fluorescence ratio was 0.992.
With ACCGGAATCA the switch fluorescence ratio was 1.11.
Work on GTTTCGACTT yielded a switch fluorescence ratio of 0.991.
Work on GTTTTTGCGT yielded a switch fluorescence ratio of 0.961.
For GAATAGGGTC, the switch fluorescence ratio was 0.985.
Sequence AAGACCAGAC has a switch fluorescence ratio of 1.19.
Sequence AACGGAGCTC has a switch fluorescence ratio of 1.24.
For CCCTATAAAC, the switch fluorescence ratio was 1.02.
For CAGTCGCATG, the switch fluorescence ratio was 1.1.
With GGCAGGGTGG the switch fluorescence ratio was 0.996.
Work on CGCCACGGCC yielded a switch fluorescence ratio of 1.08.
With ATGATTCTTC the switch fluorescence ratio was 0.987.
Sequence CTGGGCTATT has a switch fluorescence ratio of 1.05.
Work on TATGGTATAT yielded a switch fluorescence ratio of 1.02.
Work on TGCTTTGGGC yielded a switch fluorescence ratio of 0.972.
Sequence ATTACAATGG has a switch fluorescence ratio of 0.992.
GTGCAGTGCC was tested, and the switch fluorescence ratio was 0.992.
For TGAGTCGTGC, the switch fluorescence ratio was 1.
With GCAAAATT the switch fluorescence ratio was 0.962.
Work on TGTTCACGTC yielded a switch fluorescence ratio of 0.987.
Work on TGACACACAT yielded a switch fluorescence ratio of 1.35.
ACACGCCG gave a switch fluorescence ratio of 1.12.
ACCATTAAAT was tested, and the switch fluorescence ratio was 0.979.
Sequence GGCAGTTCCG has a switch fluorescence ratio of 0.998.
CTCGTTACCG was tested, and the switch fluorescence ratio was 1.1.
CTATTGGTGC was tested, and the switch fluorescence ratio was 0.98.
CGAGGCCTGC was tested, and the switch fluorescence ratio was 1.1.
In the case of CCCGTTCCC, the switch fluorescence ratio is reported as 1.1.
TCTATCGTAA was tested, and the switch fluorescence ratio was 1.35.
GTCCCCGCCT was tested, and the switch fluorescence ratio was 1.18.
ATAGAGGCTT showed a switch fluorescence ratio of 1.01.
For GAAGTGGACA, the switch fluorescence ratio was 1.03.
In the case of TGGTTTTGAG, the switch fluorescence ratio is reported as 1.02.
TTTAGTAACA gave a switch fluorescence ratio of 1.
For CTTTGGAGTT, the switch fluorescence ratio was 1.03.
Sequence GCATTTACTT has a switch fluorescence ratio of 1.05.
ATGGCAAACT was tested, and the switch fluorescence ratio was 0.993.
Sequence AAGATTCTCC has a switch fluorescence ratio of 1.06.
